In the supplement of paper PMC12632987:
The full ranking holds about 4,500 sequences; the median of “median log2 fold change of GCK-ALFA target abundance (FLAG IP / Myc IP barcode read proportion)” is about 0.078, and the lowest 2% start at about -0.6. The list shows a part of the results.

B1: GBRAP_52_5959 (protein)
chain: MEERMRRLVEEALELARAGREEELDALLREIAETLNEEELELLAEEMARRVEESDLETAEILLDIAIRLGDVLIEEGRDEGIASYIEARVAAAAYKLEQK
B2: GBRAP_160_4270 (protein)
chain: SPELEELIEDLEEDRDEILEDVDRISPEEVRVEAVTELGSHLMEAVDLGLVTDEQEDELAEIIDELEAELAAAADASPEEIKAIIERHYDEAIELLKKAK
B3: GBRAP_95_7050 (protein)
chain: DDDQLALESTFEVLETYLDLGDKENAERAAEEAVKLLKELGYDAVPDDISLEAGKLLIKVAAKTESKEDVLKLTEALKAKAKTEEDKKELEKVAEEALAA
B4: GBRAP_160_4096 (protein)
chain: SEKVEELIKEIEELEEETKKMIEGENIEQRATILRGFGGDVLMLLFESGIAPEEVEDFADEKFDELVETVEANPDLTLEEIKELLEEVVEEVKEKIKELG
B5: GBRAP_83_6902 (protein)
chain: AEKVTVAGPGDKAEELADIVIDLSKEEGYEVVVEVIVTPETVEKVLEMAKRLAEAGVEVELEVLAVGMTEEQAKELEEKIKKIAEEYGVNIKVKVYVEKP
B6: GBRAP_128_3377 (protein)
chain: INKEKLEEVRKLVEEAIESNVEETAKLTREIIELMGTASKEEKEEIAEIVIENLPKFSKEKLEVIADVIREMRPKADPYGQELLNEVEVEALNEAEELEE
B7: GBRAP_11_2694 (protein)
chain: KKEELKKAAKLAEELAKLLEELLKEGVDNEKLQKEIEKKLEELEKLAKKYGDEGLKKLTEIAKELWKKAKEDPENKEKYLKEALAAARVLEGQYLLEIEE
B8: GBRAP_80_6851 (protein)
chain: AEAALAAALAALAAVLPEAAADAREIVALARALGVPLEVITDYLNAVTELAKLDPALAKALLRELLADLREEAAAGDRANAEAVLRGYAGEALLLAEELE
B9: GBRAP_122_2953 (protein)
chain: NKEEEVERLVKETLERAEKENPTETFIEAIKRAAEELDEESVIRFAEKLAEKAREKGWEAEALKAFATAAKWLYENKPELEEAADRLAELADELADLLLE
B10: GBRAP_52_5997 (protein)
chain: REERIEALARELVEATLAGDDERVRALLRRIAAELSDEEIVETVRLATRLLERDPRATLEDLANFIDLVEDVLEEEGKSDELIARVLGAIAEAIYEAELE
B11: GBRAP_125_3086 (protein)
chain: AVERALEAAGTILRAAGFSDEDVEEFKKLSADSTVKAVFNALAYLLLDEEMALKAEELTEEEALAVLERVAAEIAAHPDLTPEEVRALLAAAIEEALAAS
B12: GBRAP_128_3556 (protein)
chain: STEEKVARAEELLEKIKNSDEEEARRYAEELVALLASVDPETREAIVALILERLPELSVEQLEILADVFREQRPRVDPDVAEALADIEVEALNEALEKEE
B13: GBRAP_74_6500 (protein)
chain: MEEAEKKAEEFAELLRKGASREELLAHLDEMNVEALNLAVIKATEEAEKNAEELTEEQIDALAELADRVFAESEDPEAIDAAGRLVKILYERELRLREEE
B14: GBRAP_52_6019 (protein)
chain: MRERLRAFVEEVLALVRAGRLEEARARVEELIASLDEEEVLLLIEEVAALAAAAAPEDHDAVWRLAEMIAEAMERAGKDEVLADLLLARTAAALYEAEQR
B15: GBRAP_52_5874 (protein)
chain: KLEEAVKKLEEAVKAMKAGDEEKAKKILKEIVEEFDEETIIEAVKKLAEKVLGKSLEEAEAFYKTADLLAEILEEAGKDENVASYIEAIAGATLYTVEQK
B16: GBRAP_95_7072 (protein)
chain: DDDQLVIDSLAEVLETYVDLGKEEEARKAARELVELLKESGYLKLPSSLSLESRLLIVKEAAKILSEEDVKKLTEAILSSVEDEEEKKAIREELEKLLKE
B17: GBRAP_160_4653 (protein)
chain: SANMEKLIKEIEEILKEAVEMMKGESHEERVAIARDAEGQILLLLEENPEVTEEMEEEVDKIMRALVETIAANPDLTDEELAALFEKALKEIKETIEKLS
B18: GBRAP_83_6874 (protein)
chain: AEEITVAGPGDRVAELVDAAIDLHKEEGYEVSLEIIATPEQREAVLEALKKLAEAGVETDVTVLAVGATPEEAAALKAELEAIFAAAGVNNNVEVILEEP
B19: GBRAP_52_6054 (protein)
chain: MEEELKAQVEEAIALMKAGDEEAAKALLKKIAETLDEEELKLFAEIMAEAAAKAKPEDFDAMARLAELWEEALEEAGVDEAFADDALARIYAALYEAELK
B20: GBRAP_52_6359 (protein)
chain: ALEEALALLREALEAVLAGDRERARAILEELVATFDDETILAAVERLAAELADKSLEEAEAFLELALLLADVMDAAGRDPVTADAIEATAARLYMAVKAK
B21: GBRAP_160_4429 (protein)
chain: MEKLEKAIKEIRELFEEAAEMMKGQSAEERLVIVRVTKGEVLLTLEELGLLTDEIEKVIDETFAEIEAYIAAHPDISDEEFAALLEEAYDRIEEKLKKEF
B22: GBRAP_52_5940 (protein)
chain: MEEELEKIAEELIELALEGKDEELEKKAKEIAETYSDEEILKIAEKIAELAKKAPKEDLDAYFRLTEILTKQLEEAGRSEELISEIEGLMAKAMYENELK
B23: GBRAP_128_3202 (protein)
chain: VSPEAVAELKALAKEVIATKTDEAIKAFAKAVAEKLKAGEIDLDTLEEIVAYLGDGLSEDDIAKAMDALREALADVGPEYLATAQGVLGEKIMEKEEEEE
B24: GBRAP_52_5906 (protein)
chain: MRERLRRDLLEIIEAVKAGDRERAREIAERVAEEYNDEELRLAVEELARLALEAAPEDLPAWWETAEILAEALEEAGKEEVLADDLLAATAAAIHARLQA
B25: GBRAP_39_5633 (protein)
chain: EEEEEIELLESLAEAELAKRKVETGKSDEELYKELLKEAREKAKDNPELLALLEELDKLAEKKGEEAKERLTAIMALLLSGEPLEDVKKLMEAEIKRLKK
B26: GBRAP_125_3118 (protein)
chain: SMEEDLENLAIVLRALGLDEEDIEEALRLAREHGLKGTMIAVLKALGYEEAAELVEKLTEEEVRAVVAELAAEIRANPDLTPEEVKKRLLELLKEALEKS
B27: GBRAP_184_5045 (protein)
chain: TVLEREIEVEDKAELEAAMAALRAEAATVKGTLILLVKAPKFTKEMVETLMAALKDMLDAGYVTSVTVGLDGEMSEEVVDLAVELADEAGVNLVLALEEE
B28: GBRAP_78_6673 (protein)
chain: KVEEELDKAIEELNKAAKILIEMNTEEAQEILGKVVDAMSILVELQEGEANLEDAEEALKLLKEALKEVKKINTEEAKEAAKEIEEAIKHLEKAIKLLKE
B29: GBRAP_43_5769 (protein)
chain: SKELVEGAFETAILMLQDPSISEETKVKAIIAAMELAADEGYVDEKLLEEMIEEAGKTLSKESLKKILEAAKELAKKYPHAKEAFEKAAKKLEEAIKKKE

Target: GABARAP, O95166
Sequence (O95166 whole entry, the tested form may be a part): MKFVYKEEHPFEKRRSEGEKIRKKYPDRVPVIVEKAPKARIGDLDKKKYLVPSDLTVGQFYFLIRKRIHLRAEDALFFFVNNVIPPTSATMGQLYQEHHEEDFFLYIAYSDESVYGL
Assay: median log2 fold change of GCK-ALFA target abundance (FLAG IP / Myc IP barcode read proportion) (log2 ratio); each designed protein is fused to an ALFA-tag nanobody in HEK293 cells to bring the named protein to FLAG-tagged glucokinase (GCK); Myc marks an untargeted standard; higher = target protein stabilised (more abundant)
Conditions: target protein: 3xFLAG-MCP-GCK-ALFA reporter; HEK293 landing pad (RPLP)
Outline: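 Sequencing of reverse-transcribed, amplified circular RNA barcodes from anti-FLAG and anti-Myc immunoprecipitates provided the readout for an ALFA-nanobody-fused binder library recombined into HEK293 landing-pad cells. Those cells were induced with 2 μg mL^−1 doxycycline, transfected with a plasmid expressing a FLAG-tagged target and a Myc-tagged standard, and lysed after 48 h. Target abundance is the per-binder median log2 ratio of FLAG to Myc barcode read proportions. Only barcodes at a proportion of ≥10^−7 in both replicates and binders with ≥3 barcodes per replicate were kept, with a 10^−6 pseudocount added before the two replicates were pooled.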

Row | Binder | median log2 fold change
1 | B1 | -0.532
2 | B2 | -0.168
3 | B3 | 0.292
4 | B4 | 0.0128
5 | B5 | -0.234
6 | B6 | -0.00489
7 | B7 | 0.166
8 | B8 | -0.217
9 | B9 | 0.241
10 | B10 | -0.74
11 | B11 | 0.13
12 | B12 | 0.156
13 | B13 | 0.134
14 | B14 | -0.142
15 | B15 | -0.0786
16 | B16 | 0.353
17 | B17 | 0.0632
18 | B18 | 0.164
19 | B19 | 0.0355
20 | B20 | -0.203
21 | B21 | 0.0186
22 | B22 | 0.291
23 | B23 | 0.179
24 | B24 | -0.331
25 | B25 | 0.334
26 | B26 | 0.278
27 | B27 | 0.0756
28 | B28 | 0.127
29 | B29 | 0.312
